# Screen size: about 310,000 compounds; about 14,000 (4.5%) showed an effect of 50% or more. Effects have a minus sign here. Some of the results follow.
# Molecular target: human ether-à-go-go-related gene (hERG) potassium channel (human, UniProt Q12809)
# Test: primary screen, population patch clamp on CHO cells stably expressing hERG
# 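Note: peak tail current of the secondary pulse compared with the same well before compound.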
# Chain of human ether-à-go-go-related gene (hERG) potassium channel (Q12809 whole entry, looked up): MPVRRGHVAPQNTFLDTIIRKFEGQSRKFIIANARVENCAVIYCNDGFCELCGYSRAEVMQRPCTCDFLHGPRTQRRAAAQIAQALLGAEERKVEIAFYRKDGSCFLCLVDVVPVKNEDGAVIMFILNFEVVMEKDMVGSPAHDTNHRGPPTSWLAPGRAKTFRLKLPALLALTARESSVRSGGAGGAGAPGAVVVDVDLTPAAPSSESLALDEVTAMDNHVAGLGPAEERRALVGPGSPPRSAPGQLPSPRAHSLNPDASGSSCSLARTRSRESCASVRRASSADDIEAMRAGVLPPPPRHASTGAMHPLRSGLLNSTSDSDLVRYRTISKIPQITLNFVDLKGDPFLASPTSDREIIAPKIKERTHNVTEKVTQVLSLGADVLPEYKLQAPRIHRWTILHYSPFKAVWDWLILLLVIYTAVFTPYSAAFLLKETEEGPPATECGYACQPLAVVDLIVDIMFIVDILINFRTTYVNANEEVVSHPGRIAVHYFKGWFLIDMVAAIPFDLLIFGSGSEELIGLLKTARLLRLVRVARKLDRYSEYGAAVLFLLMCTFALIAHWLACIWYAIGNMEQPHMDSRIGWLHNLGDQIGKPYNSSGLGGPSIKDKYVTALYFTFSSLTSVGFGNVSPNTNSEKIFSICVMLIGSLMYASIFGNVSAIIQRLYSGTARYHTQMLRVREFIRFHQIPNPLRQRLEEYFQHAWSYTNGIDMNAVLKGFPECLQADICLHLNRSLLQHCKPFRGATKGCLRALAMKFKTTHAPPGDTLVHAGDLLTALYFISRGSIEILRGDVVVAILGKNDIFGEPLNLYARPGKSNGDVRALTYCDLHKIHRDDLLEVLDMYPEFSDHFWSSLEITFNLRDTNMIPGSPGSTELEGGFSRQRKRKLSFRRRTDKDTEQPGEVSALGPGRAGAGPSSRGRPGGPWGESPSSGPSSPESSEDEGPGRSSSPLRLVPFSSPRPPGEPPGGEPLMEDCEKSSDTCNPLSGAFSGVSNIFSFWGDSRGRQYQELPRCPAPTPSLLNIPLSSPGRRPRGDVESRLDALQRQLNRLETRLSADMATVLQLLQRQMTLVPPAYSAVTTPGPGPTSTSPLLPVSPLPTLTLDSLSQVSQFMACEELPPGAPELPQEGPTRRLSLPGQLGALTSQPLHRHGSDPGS
row,SMILES,"hERG current change (%, negative = inhibition) at 10uM"
1,O=C(Nc1ccc(NC(=O)c2ccco2)nc1)c1cccc(F)c1,17.2%
2,Nc1nc(CSc2ccccc2)nc(N2CCCCC2)n1,-3.27%
3,O=C(NC1CCCc2ccccc21)c1cccc(S(=O)(=O)N2CCN(c3ccccc3)CC2)c1 (stereo not shown),-4.06%
4,Nc1nc2ccc(C(=O)NCCOC(=O)C3CCCCC3)cc2s1,33.3%
5,COc1ccccc1N1CCN(C(=O)c2cc(C(=O)N3CCN(c4ccccc4OC)CC3)cc([N+](=O)[O-])c2)CC1,-0.436%
6,COC(=O)c1ccccc1NC(=O)N1CCN(C/C=C/c2ccccc2)CC1,-45.1%
7,O=C(COC(=O)c1cc([N+](=O)[O-])ccc1N1CCOCC1)NCc1ccc(F)cc1,-53.7%
8,O=C(NCc1ccccc1)C(c1cccnc1)N(C(=O)c1csnn1)c1ccccc1 (stereo not shown),-1.43%
9,CCOC(=O)c1ccc(-c2c(-c3ccc4c(c3)OCO4)noc2-c2ccsc2)cc1F,4.06%
10,CN(C)Cc1ccc(F)cc1Sc1cc(Cl)ccc1Cl.Cl,21.5%
11,O=C(CN1CCN(Cc2cccc(F)c2)CC1)Nc1ccccc1F,-55.9%
12,COC(=O)c1sccc1NC(=O)c1c(C)noc1C,-0.75%
13,O=C(O)CNC(=O)c1ccccc1,16.8%
14,CCN(CC)CCOc1ncnc2c1oc1ccccc12,-39.1%
15,NP(=O)(OCC(F)(F)F)Oc1ccc(Cl)cc1 (stereo not shown),10.4%
16,CCCC(C)NC(=O)CSCc1ccc(OC)cc1 (stereo not shown),-10.6%
17,COCCCNC(=O)c1cccs1,5.24%
18,O=C1C(=O)N(CCCn2ccnc2)C(c2ccc(Cl)cc2)/C1=C(\O)c1ccc2c(c1)OCCO2 (stereo not shown),23.4%
19,CN(C(=O)c1ccc(NC(=O)Cc2ccc(NC(=O)C3CCN(C(=O)c4ccccc4)CC3)cc2)cc1)C1CC1,13.9%
20,Cc1nn(Cc2ccccc2)c(Cl)c1C(=O)NCc1ccco1,-0.682%
21,Cc1onc(C(=O)Nc2sc3c(c2C(N)=O)CCCC3)c1[N+](=O)[O-],-15.4%
22,CC(=O)Nc1ccc(S(=O)(=O)NCC(=O)NC(C)c2ccc(S(N)(=O)=O)cc2)cc1 (stereo not shown),17.4%

row,SMILES,"hERG current change (%, negative = inhibition) at 10uM"
1,CN(C)/C=C/C(=O)C(Cl)(Cl)Cl,11.6%
2,COc1cccc(N2CCN(CC(=O)NC3=Nc4ccccc4N=C(C)C3c3ccccc3)CC2)c1 (stereo not shown),-28.7%
3,COc1cc(O)c(C(CC(=O)N2CCCC(C)C2)c2cc(OC)c(OC)c(OC)c2)c(OC)c1 (stereo not shown),2.69%
4,COC(=O)CSc1nc(C2CC2)nc2ccccc12,-11.5%
5,COc1cccc(S(=O)(=O)Nc2ccc(C(=O)N3CCCCCC3)cc2)c1,-18.7%
6,O=c1cc(C(F)(F)F)nc(SC/C=C/c2ccccc2)[nH]1,18.6%
7,COc1ccc(N(CC(=O)N2CCCCCC2)S(=O)(=O)c2ccccc2)cc1,-12.6%
8,CCOC(=O)CNC(=S)N(Cc1ccco1)Cc1ccccc1Cl,-19.6%
9,CCCn1nnc(NC(=O)c2ccc(Br)o2)n1,-4.46%
10,CCOc1ccc(CNC(=O)CN2C(=O)C(c3ccccc3)Oc3cccnc32)cc1 (stereo not shown),-3.6%
11,O=S1(=O)C=C(N2CCCCC2)c2ccccc21,-23.7%
12,Cc1ccccc1-c1cc(C(=O)NCc2cccc(C(F)(F)F)c2)nn1CC1CC(c2cccc([N+](=O)[O-])c2)=NO1 (stereo not shown),-4.4%
13,O=c1[nH]c(C2CCN(S(=O)(=O)c3ccccc3)CC2)nc2c1nnn2Cc1ccccc1,-22.3%
14,Cc1cc(C)nc(SCC(=O)c2ccc(F)cc2)n1,10.6%
15,Cc1cc(NC(=O)Cn2cnc3c(cnn3C(C)(C)C)c2=O)no1,5.53%
16,OC(COc1ccccc1)CN(Cc1ccccc1)CC(O)COc1ccccc1 (stereo not shown),-9.08%
17,Cc1csc(NC(=O)c2ccc(C)c([N+](=O)[O-])c2)n1,-41.6%
18,O=C1N=C(N2CCN(c3ccccc3)CC2)S/C1=C/c1cccs1,-49.3%
19,COc1ccc(S(=O)(=O)Nc2ccccc2C(=O)N2CCCC2)cc1OC,6.92%
20,CS(=O)(=O)/C(C#N)=C/c1cccn1S(=O)(=O)c1ccccc1,7.15%
21,C=CCn1cnc2c(oc3ccccc32)c1=O,4.04%
22,Cc1cc(C)c(C#N)c(N2CCN(CCOc3ccc(Cl)cc3)CC2)n1,-33.6%

row,SMILES,"hERG current change (%, negative = inhibition) at 10uM"
1,O=C(CCCCC(=O)Nc1ccc(F)cc1)Nc1ccc(F)cc1,18%
2,O=C(NNC(=O)c1ccc(NC(=O)c2ccccc2)cc1)c1ccccc1,16.3%
3,COc1cc(C2c3c(oc4cc(C)c(C)cc4c3=O)C(=O)N2c2cc(C)ccn2)ccc1O (stereo not shown),6.44%
4,CCc1nnc(NC(=O)C2CCN(c3nc(C)cc(C)n3)CC2)s1,14.4%
5,O=C(NCc1ccccc1)C(=O)c1cn(CC(=O)N2CCOCC2)c2ccccc12,19.6%
6,Oc1cc2c(cc1CN1CCc3ccccc3C1)OCO2,-0.697%
7,Cc1cccc(C)c1OCCCCCNCCO,5.08%
8,O=C(N/N=C\c1cc2c(cc1Cl)OCO2)c1cccnc1,4.34%
9,O=C(CO/N=C/c1ccc(OC(F)F)cc1)NCc1ccco1,-51.8%
10,CC1CCc2sc(C(=O)N3CCC(C(N)=O)CC3)cc2C1 (stereo not shown),5.36%
11,COCCN(C(=S)Nc1cccc(Cl)c1C)C(C)c1ccco1 (stereo not shown),-15.4%
12,O=C(CN1CCC(n2nnc3cc(F)ccc32)CC1)NNC(=O)c1ccccc1,-11.9%
13,CSCC[C@H](NC(=O)NCCc1ccc(F)cc1)C(=O)O,-6.55%
14,CC(=O)Nc1ccc(S(=O)(=O)Nc2ccc(S(=O)(=O)Nc3ncccn3)cc2)cc1,-0.782%
15,O=c1cc(-c2ccccc2)[nH]c2cc(F)ccc12,2.32%
16,O=C(OCc1cc(=O)oc2cc(O)ccc12)c1cc(S(=O)(=O)N2CCOCC2)ccc1F,5.32%
17,CC(CNS(=O)(=O)c1ccc2c(c1)CC(=O)N2C)c1ccccc1 (stereo not shown),-12.3%
18,Fc1ccc(-c2csc(-c3ccc(C4SCCS4)cc3)n2)cc1F,4.89%
19,Cc1cccc(NS(=O)(=O)c2cnc[nH]2)c1,6.61%
20,COC(=O)c1ccccc1NC(=O)c1cc(-c2ccco2)on1,22.6%
21,O=C(CNC(c1ccccc1)c1ccccc1)Nc1ccccc1Br,23.3%
22,COCCn1c(=NC(=O)c2ccc(S(=O)(=O)N3CCc4ccccc4C3)cc2)sc2cc(S(N)(=O)=O)ccc21,4.21%

row,SMILES,"hERG current change (%, negative = inhibition) at 10uM"
1,CCCNC(=O)Nc1nc2ccccc2s1,-3.26%
2,O=C1CN(C(=O)CN2CCCCC2)C(c2ccccc2)c2cc(Br)ccc2N1 (stereo not shown),-66.5%
3,COc1ccc(C(=O)N2CCN(S(=O)(=O)c3ccc4c(c3)OCCO4)CC2)cc1OC,-12.8%
4,O=C1CCN(CCc2ccccc2)CCN1[C@H](CSc1ccc(Br)cc1)c1ccccc1,-66.2%
5,Cc1c(CCO)c(=O)n(C)n1C(=O)c1ccc(Cl)cc1,-2.66%
6,Cc1csc(NC(=O)CSc2nncn2C)n1,19%
7,COc1cccc(CN2CCNC(=O)C2CC(=O)NC2CCCCCCC2)c1 (stereo not shown),14%
8,CC(Sc1nc2ccccc2c(=O)n1C)C(=O)Nc1ccc2c(c1)OCCO2 (stereo not shown),15.1%
9,CCCCn1c(=NC(=O)c2ccco2)c(C(=O)OCC)cc2c(=O)n3cccc(C)c3nc21,-81.6%
10,CCC(O)C1CCN(Cc2cn(-c3ccc(OC)cc3)nc2-c2cccc(F)c2)CC1 (stereo not shown),-75.3%
11,CCC(C(=O)Nc1cc(C)cc(C)n1)c1ccccc1 (stereo not shown),-23.6%
12,COc1ccc(NC(=O)Nc2ccc(O)c3ccccc23)cc1,9.01%
13,O=C(/C=C/Nc1ccccc1)c1ccc(Cl)cc1Cl,6.04%
14,CN(c1cc(=O)n2ccccc2n1)C1CCCCC1,-0.762%
15,C[C@@H](NC(=O)[C@@H]1Cc2ccccc2CN1)C(=O)NCC1CCCO1 (stereo partly shown),20.9%
16,CCCCC(=O)Nc1nnc(S(=O)(=O)N(CC)c2ccc(OC)cc2)s1,6.21%
17,CCOc1ccc(NC(=O)CN(C)C(=O)c2ccc(COc3ccccc3)cc2)cc1OCC,-7.39%
18,O=C(Oc1ccc(Br)cc1)c1cncc(Br)c1,8.29%
19,Cc1ccc(C(=O)CSc2nnnn2Cc2ccccc2)cc1C,11.3%
20,COc1cc(/C=C2/C(=N)N3N=C(CC(=O)N4CCOCC4)SC3=NC2=O)ccc1OCc1ccccc1,19%
21,CCc1ccc(NC(=O)CNC(=O)[C@@H]2Cc3ccccc3CN2C(=O)OC(C)(C)C)cc1,-22.8%
22,CCn1nc(NS(=O)(=O)c2ccc(NC(C)=O)cc2)c2cc3cc(C)ccc3nc21,16.7%

# From publication PMC4336329 (PLoS ONE, 2015)
